In one assay the target is T1, huCD98hc ECD Avi-His (human, UniProt P08195 105-529).
T1 construct: biotinylated on the Avi tag where captured on streptavidin; also called Human CD98-AVI-His; Human CD98hc-AVI-His
T1 sequence: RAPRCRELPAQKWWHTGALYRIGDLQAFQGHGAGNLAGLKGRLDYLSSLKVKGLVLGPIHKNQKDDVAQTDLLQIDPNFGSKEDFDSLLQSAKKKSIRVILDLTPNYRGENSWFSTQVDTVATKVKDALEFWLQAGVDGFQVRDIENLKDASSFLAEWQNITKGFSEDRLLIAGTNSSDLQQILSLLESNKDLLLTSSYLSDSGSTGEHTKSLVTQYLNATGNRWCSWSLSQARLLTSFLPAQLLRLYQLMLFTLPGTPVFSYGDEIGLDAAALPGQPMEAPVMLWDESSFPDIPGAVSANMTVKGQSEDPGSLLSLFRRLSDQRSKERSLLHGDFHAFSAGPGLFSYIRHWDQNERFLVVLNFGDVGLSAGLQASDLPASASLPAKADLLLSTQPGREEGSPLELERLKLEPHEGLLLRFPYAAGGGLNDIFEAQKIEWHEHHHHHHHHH
The experiment in a line: ELISA, 1-30 ug/mL. The procedure:
(§1) Blocking buffer was removed and human, cyno, or mouse Avi-His-tagged CD98hc and Avi-His-tagged human TfR polypeptides were added at 1 μg/ml in ELISA diluent and captured for 1 hour at room temperature. After washing three times with 300 μl of PBST (PBS+0.05% Tween20, Thermo 28352), the hybridoma cell culture supernatants or 1 μg/ml of commercially available purified mouse anti-human CD98hc monoclonal antibody (Sigma Aldrich, Cat #SAB 4700503) and rat anti-mouse CD98hc antibody (Bio-Rad Laboratories, Hercules, CA, Cat #MCA2684) were added (50 μl/well) to each well. After 30 minutes of incubation at room temperature, the plates were washed three times with 300 μl of PBST. […] After a final set of washes (3×300 μl in PBST), 50 μl/well of BioFx TMB substrate (Surmodics, Eden Praire, MN, Cat #TMBW-1000-01) was added to the wells. The reaction was then quenched after 5-10 mins with 50 μl/well of 2N sulfuric acid. The plates were read for absorbance at 450 nm on a SpectraMax M5 (Molecular Devices, Sunnyvale, CA) using SoftMax Pro software.
(§2) Purified 2+1 anti-CD98hc bispecific antibodies were screened for binding to human and cyno CD98hc by ELISA as in Example 6. Purified 2+1 bispecific antibodies were screened at concentrations ranging from 1-30 μg/mL. ELISA binding to human and cyno CD98 and control cyno TfR AVI-His tagged proteins as a ratio to secondary antibody alone were calculated, and values are listed in Table 10A. Purified 2+1 bispecific antibodies were also screened for their ability to bind CHO cells overexpressing human or mouse CD98hc or cells endogenously expressing human CD98hc by FACS. […] Data was acquired on a FACS Canto (BD Biosciences).
(In general: In an ELISA, binding on a coated surface is turned into a signal by an enzyme label.)

A further assay deals with T2, cyno TfR AVI-His (cyno, UniProt H9EXL1 89-760 (rhesus entry)).
T2 construct: control protein
Kind of assay: ELISA, 1-30 ug/mL. Here is the method:
as §1, §2

The target in assay [1] is T3, human CD98hc endogenously expressed on HCMEC/D3 cells (human).
T3 construct: human brain endothelial cell line
T3 chain: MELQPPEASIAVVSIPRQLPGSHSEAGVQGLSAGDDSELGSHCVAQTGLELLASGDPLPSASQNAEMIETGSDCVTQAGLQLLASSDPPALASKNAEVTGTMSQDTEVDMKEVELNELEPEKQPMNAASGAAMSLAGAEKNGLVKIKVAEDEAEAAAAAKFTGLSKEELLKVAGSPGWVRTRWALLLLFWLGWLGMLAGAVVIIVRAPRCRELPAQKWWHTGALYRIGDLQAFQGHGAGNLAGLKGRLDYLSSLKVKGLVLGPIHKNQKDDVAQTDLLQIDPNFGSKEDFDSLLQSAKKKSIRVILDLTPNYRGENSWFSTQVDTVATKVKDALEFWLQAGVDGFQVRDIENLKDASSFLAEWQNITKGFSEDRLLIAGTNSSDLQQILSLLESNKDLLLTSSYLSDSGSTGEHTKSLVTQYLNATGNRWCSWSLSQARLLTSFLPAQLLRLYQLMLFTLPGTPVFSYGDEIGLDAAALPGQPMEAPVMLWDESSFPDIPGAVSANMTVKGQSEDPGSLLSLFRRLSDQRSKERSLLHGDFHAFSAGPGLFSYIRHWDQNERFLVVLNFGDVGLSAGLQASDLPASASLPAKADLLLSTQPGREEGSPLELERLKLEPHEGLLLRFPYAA
The experiment in a line: FACS. Here is the method: as §2, with “Biosciences). The ratio of binding to endogenously expressing human brain endothelial cells over secondary only is also in Table 12B. 47 out of 94 of the 2+1 anti-CD98hc bispecific antibodies screened were positive by ELISA with signal at least 5-fold higher than the secondary alone, and 16 were ELISA and FACS positive which FACS binding increased 3-fold or more compared to non-expressing cells.” for “Biosciences).”
(In general: In flow cytometry, cells or beads pass a laser one at a time.)

In assay [2] the target is T4, Full length human CD98hc on CHO cells (human).
T4 construct: CHO cells stably overexpressing it; also called CHO-human CD98hc; CHO-huCD98hc
T4 chain: T3 chain
Kind of assay: FACS. The procedure: as §2, with “Biosciences). The ratio of binding to endogenously expressing human brain endothelial cells over secondary only is also in Table 12B. 47 out of 94 of the 2+1 anti-CD98hc bispecific antibodies screened were positive by ELISA with signal at least 5-fold higher than the secondary alone, and 16 were ELISA and FACS positive which FACS binding increased 3-fold or more compared to non-expressing cells.” for “Biosciences).”

Assay [3] concerns the target T5, Cyno CD98hc ECD Avi-His (cynomolgus macaque, UniProt P08195 105-529 (human entry)).
T5 construct: biotinylated on the Avi tag where captured on streptavidin; also called Cyno CD98-AVI-His; Cyno CD98hc-AVI-His
T5 chain: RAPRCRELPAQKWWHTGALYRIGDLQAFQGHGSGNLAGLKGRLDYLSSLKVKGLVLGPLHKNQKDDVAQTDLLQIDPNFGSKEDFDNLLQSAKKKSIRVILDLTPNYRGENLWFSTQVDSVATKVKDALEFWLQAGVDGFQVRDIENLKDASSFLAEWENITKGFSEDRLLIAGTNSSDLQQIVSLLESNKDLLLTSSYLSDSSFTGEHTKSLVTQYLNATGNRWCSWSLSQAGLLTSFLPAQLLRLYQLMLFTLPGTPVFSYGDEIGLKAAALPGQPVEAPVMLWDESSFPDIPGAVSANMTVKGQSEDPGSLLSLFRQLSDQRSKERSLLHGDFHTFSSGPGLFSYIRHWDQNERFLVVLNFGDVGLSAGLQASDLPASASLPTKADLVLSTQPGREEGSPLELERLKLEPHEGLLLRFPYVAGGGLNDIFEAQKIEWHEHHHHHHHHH
Kind of assay: ELISA, 1-30 ug/mL. The procedure:
as §1, §2

Assay [4] deals with T5, Cyno CD98hc ECD Avi-His. Kind of assay: SPR, Carterra LSA, antibody immobilized. Here is the method:
Binding kinetics of 2+1 anti-CD98hc bispecific antibodies (from the hybridoma campaigns) to human and cyno CD98hc Avi-His were evaluated using a Carterra LSA instrument (Carterra, Salt Lake City, UT). The 2+1 anti-CD98hc bispecific antibodies were prepared in duplicates by diluting 50-fold into 10 mM Acetate, pH 5.0 (Carterra) to give final concentration of 20 μg/mL. An HC200M sensor chip (Carterra) was activated using the single channel flow cell with a 7-minute injection of a 1:1:1 mixture of 100 mM MES pH 5.5, 100 mM sulfo-NHS, 400 mM EDC (all reconstituted in MES pH 5.5; 100 μl of each mixed in vial immediately before running assay). After switching to the multi-channel array flow cell, the antibodies were injected over the activated chip in four 96-spot arrays for 15 minutes each. The remaining unconjugated active groups on the chip were then blocked by injecting 1M Ethanolamine pH 8.5 (Carterra) for 7 minutes using the single channel flow cell. The resulting sensor chip contained eight spots for each antibody, at four different densities. Two independent experiments were performed as follows, resulting in an N of between one and eight determinations for each antibody. Spots that yielded less than 20 RU of analyte binding were excluded from further analysis.
After priming with running buffer HBS-EP+ (Teknova) with 0.5 mg/ml BSA (MP Biomedicals), the immobilized 2+1 anti-CD98hc bispecific antibodies were tested for their ability to bind to several forms of CD98hc Avi-His, including human and cyno orthologs described above. Estimates of affinity were generated by injecting each analyte over the entire antibody array using the single channel flow cell. CD98hc Avi-His analytes were diluted with running buffer, in a series of six, three-fold serial dilutions starting from 600 nM for human and cyno CD98hc Avi-His. Analytes were injected for 5 minutes, and dissociation was followed for 10 minutes. After each analyte injection, antibodies were regenerated with Pierce IgG Elution Buffer (ThermoScientific). Data were processed and analyzed using NextGenKIT high-throughput kinetics analysis software (Carterra).
The equilibrium dissociation constants (KD) were calculated from the fitted association and dissociation rate constants (k-on and k-off) for 2+1 anti-CD98hc bispecific antibodies of the present disclosure.
A general note: Surface plasmon resonance follows binding to a sensor surface in real time, without labels.

cyno TfR AVI-His, sequence (chain, as listed by the source): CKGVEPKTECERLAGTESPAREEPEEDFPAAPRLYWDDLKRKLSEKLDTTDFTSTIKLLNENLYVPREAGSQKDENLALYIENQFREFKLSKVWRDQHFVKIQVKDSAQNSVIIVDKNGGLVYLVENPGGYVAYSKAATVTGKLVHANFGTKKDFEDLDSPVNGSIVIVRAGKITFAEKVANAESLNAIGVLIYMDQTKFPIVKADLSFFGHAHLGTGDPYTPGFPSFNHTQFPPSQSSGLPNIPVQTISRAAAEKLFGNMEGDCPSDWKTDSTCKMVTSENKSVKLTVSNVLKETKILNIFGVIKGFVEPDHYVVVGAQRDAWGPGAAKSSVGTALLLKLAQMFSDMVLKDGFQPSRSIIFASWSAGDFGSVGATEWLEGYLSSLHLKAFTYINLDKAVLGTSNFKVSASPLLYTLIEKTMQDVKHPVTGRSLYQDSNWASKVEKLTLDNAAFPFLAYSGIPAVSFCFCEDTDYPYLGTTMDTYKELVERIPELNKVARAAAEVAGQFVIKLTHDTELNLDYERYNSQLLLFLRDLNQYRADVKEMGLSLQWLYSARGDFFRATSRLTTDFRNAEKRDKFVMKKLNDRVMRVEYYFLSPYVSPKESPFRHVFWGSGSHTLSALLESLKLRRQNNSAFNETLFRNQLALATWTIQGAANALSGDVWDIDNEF

B1: CD98hc.05.046 (2+1 bispecific antibody) (bispecific antibody)
heavy 1: EVRLLESGGGLVQPGGSLRLSCAASGFTFSNYAMGWVRQAPGKGLEWVSAISGSGGSTYYADSVKGRFTTSRDDSKNALYLQMNSLRAEDTAVYYCARGGPGWYAADVWGQGTTVTVSSASTKGPSVFPLAPSSKSTSGGTAALGCLVKDYFPEPVTVSWNSGALTSGVHTFPAVLQSSGLYSLSSVVTVPSSSLGTQTYICNVNHKPSNTKVDKKV[here human IgG1 Fc with changes without letters]GGGGSGGGGSGGGGSEVQLVESGGGLVKPGGSLKLSCAASGFTFSDYYMYWVRQTPEKRLEWVATISDGGSYTYYPDSVKGRFTISRDNAKNNLYLQMSSLKSEDTAMYYCARDRAYYYGSSYGFGYWGQGTLVTVSSGGSEGKSSGSGSESKSTGGSDVVMTQTPLSLPVSLGNQASISCRSSQSLVHSNGNTFFHWYLQKPGQSPKLLIYKVSNRFSGVPDRFSGSGSGTDFTLKISRVEAEDLGLYFCSQTTHVPPTFGGGTKLEIK
heavy 2: EVRLLESGGGLVQPGGSLRLSCAASGFTFSNYAMGWVRQAPGKGLEWVSAISGSGGSTYYADSVKGRFTTSRDDSKNALYLQMNSLRAEDTAVYYCARGGPGWYAADVWGQGTTVTVSS[here human IgG1 constant region with changes without letters]
light: DIQMTQSPSSLSASVGDRVTITCRASQSISSYLNWYQQKPGKAPKLLIYAASSLQSGVPSRFSGSGSGTDFTLTISSLQPEDFATYYCQQADLPAFAFGGGTKVEIKRTVAAPSVFIFPPSDEQLKSGTASVVCLLNNFYPREAKVQWKVDNALQSGNSQESVTEQDSKDSTYSLSSTLTLSKADYEKHKVYACEVTHQGLSSPVTKSFNRGEC
For B1, the “ELISA ratio to 2nd only” value stood at 25 with huCD98hc ECD Avi-His and 1 with cyno TfR AVI-His. For the same molecule, the “MFI ratio HCMEC/2nd ab only” value in assay [1] stood at 98. Also, the “MFI ratio CHO huCD98/CHO parental” value in assay [2] is 9.

B2: CD98hc.05.153 (2+1 bispecific antibody) (bispecific antibody)
heavy 1: EVRLLESGGGLVQPGGSLRLSCAASGFTFSNYAMGWVRQAPGKGLEWVSAISGSGGSTYYADSVKGRFTTSRDDSKNALYLQMNSLRAEDTAVYYCARGGPGWYAADVWGQGTTVTVSSASTKGPSVFPLAPSSKSTSGGTAALGCLVKDYFPEPVTVSWNSGALTSGVHTFPAVLQSSGLYSLSSVVTVPSSSLGTQTYICNVNHKPSNTKVDKKV[here human IgG1 Fc with changes without letters]GGGGSGGGGSGGGGSEVQLVESGGGLVKPGGSLKLSCAASGFDFSNCDMSWVRQTPEKRLEWVAYISNSGDSTYFPHTVKGRFTISRDNAKNALYLQMSSLKSEDTAMYYCARQGGHYPWFVYWGQGTLVTVSSGGSEGKSSGSGSESKSTGGSDIVMSQSPSFLDVSVGEKVAMTCKSIQSLLYSGNQKNYLAWYQQKPGQSPKVLIYWASTRESGVPDRFTGSGSGTDFTLTISSVKAEDLAVYYCQQYYTYPPTFGGGTKLEIK
heavy 2: EVRLLESGGGLVQPGGSLRLSCAASGFTFSNYAMGWVRQAPGKGLEWVSAISGSGGSTYYADSVKGRFTTSRDDSKNALYLQMNSLRAEDTAVYYCARGGPGWYAADVWGQGTTVTVSS[here human IgG1 constant region with changes without letters]
light: B1 light
In the case of B2, the “ELISA ratio to 2nd only” value with cyno TfR AVI-His and with Cyno CD98hc ECD Avi-His [3] was 1 in each case. The “MFI ratio HCMEC/2nd ab only” value in assay [1] came to 80. For the same molecule, the “MFI ratio CHO huCD98/CHO parental” value in assay [2] was determined as 6. For the same molecule, the binding result with Cyno CD98hc ECD Avi-His [4] is reported as “no binding (tested: 600 nM)”.

The record behind these values is patent publication US20250270341A1 (Alector, published 2025).
